Data taken from the supplement of paper PMC8728848.
This is one part of the list.

What was measured:
Experiment in all cases: glycan array binding signal (z-score within array); higher = stronger binding
Details in all cases: glycan notation: IUPAC condensed, linker removed
[1] = molecular target: GlcNAc(b1-2)Gal(b1-3)GalNAc
How it was run: (§1)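 Columns mapping to the same glycan were averaged after glycan names were converted to IUPAC-condensed notation. The data come from 3228 arrays in the Consortium for Functional Glycomics database, limited to those with an available protein sequence. Binding is reported as a within-array Z-score averaged across arrays of one protein sequence and across linkers.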

[2] = molecular target: GlcNAc(b1-2)Man(a1-3)[GlcNAc(b1-2)Man(a1-6)]Man(b1-4)GlcNAc(b1-4)GlcNAc
How it was run: as §1

[3] = molecular target: GlcNAc(b1-2)Man(a1-3)[GlcNAc(b1-2)Man(a1-6)]Man(b1-4)GlcNAc(b1-4)[Fuc(a1-6)]GlcNAc
How it was run: as §1

[4] = molecular target: GlcNAc(b1-2)Man(a1-3)[GlcNAc(b1-4)][GlcNAc(b1-2)Man(a1-6)]Man(b1-4)GlcNAc(b1-4)GlcNAc
How it was run: as §1

[5] = molecular target: GlcNAc(b1-2)Man(a1-3)[GlcNAc(b1-4)][GlcNAc(b1-2)Man(a1-6)]Man(b1-4)GlcNAc(b1-4)[Fuc(a1-6)]GlcNAc
How it was run: as §1

[6] = molecular target: GlcNAc(b1-2)[GlcNAc(b1-4)]Man(a1-3)[GlcNAc(b1-2)Man(a1-6)]Man(b1-4)GlcNAc(b1-4)GlcNAc
How it was run: as §1

[7] = molecular target: GlcNAc(b1-2)[GlcNAc(b1-4)]Man(a1-3)[GlcNAc(b1-4)][GlcNAc(b1-2)Man(a1-6)]Man(b1-4)GlcNAc(b1-4)GlcNAc
How it was run: as §1

[8] = molecular target: GlcNAc(b1-2)[GlcNAc(b1-4)]Man(a1-3)[GlcNAc(b1-4)][GlcNAc(b1-2)[GlcNAc(b1-6)]Man(a1-6)]Man(b1-4)GlcNAc(b1-4)GlcNAc
How it was run: as §1

[9] = molecular target: GlcNAc(b1-2)[GlcNAc(b1-4)]Man(a1-3)[GlcNAc(b1-4)][GlcNAc(b1-2)[GlcNAc(b1-6)]Man(a1-6)]Man(b1-4)GlcNAc(b1-4)[Fuc(a1-6)]GlcNAc
How it was run: as §1

[10] = molecular target: GlcNAc(b1-2)[GlcNAc(b1-6)]Man(a1-6)[GlcNAc(b1-2)Man(a1-3)]Man(b1-4)GlcNAc(b1-4)GlcNAc
How it was run: as §1

[11] = molecular target: GlcNAc(b1-2)[GlcNAc(b1-6)]Man(a1-6)[GlcNAc(b1-2)Man(a1-3)]Man(b1-4)GlcNAc(b1-4)[Fuc(a1-6)]GlcNAc
How it was run: as §1

[12] = molecular target: GlcNAc(b1-2)[GlcNAc(b1-6)]Man(a1-6)[GlcNAc(b1-4)][GlcNAc(b1-2)Man(a1-3)]Man(b1-4)GlcNAc(b1-4)GlcNAc
How it was run: as §1

[13] = molecular target: GlcNAc(b1-3)Fuc
How it was run: as §1

[14] = molecular target: GlcNAc(b1-3)Gal
How it was run: as §1

[15] = molecular target: GlcNAc(b1-3)Gal(b1-3)GalNAc
How it was run: as §1

[16] = molecular target: GlcNAc(b1-3)Gal(b1-4)Glc
How it was run: as §1

[17] = molecular target: GlcNAc(b1-3)Gal(b1-4)GlcNAc
How it was run: as §1

[18] = molecular target: GlcNAc(b1-3)Gal(b1-4)GlcNAc(b1-2)Man(a1-3)[GlcNAc(b1-3)Gal(b1-4)GlcNAc(b1-2)Man(a1-6)]Man(b1-4)GlcNAc(b1-4)GlcNAc
How it was run: as §1

[19] = molecular target: GlcNAc(b1-3)Gal(b1-4)GlcNAc(b1-2)Man(a1-3)[GlcNAc(b1-3)Gal(b1-4)GlcNAc(b1-2)Man(a1-6)]Man(b1-4)GlcNAc(b1-4)[Fuc(a1-6)]GlcNAc
How it was run: as §1

[20] = molecular target: GlcNAc(b1-3)Gal(b1-4)GlcNAc(b1-2)[GlcNAc(b1-3)Gal(b1-4)GlcNAc(b1-6)]Man(a1-6)[GlcNAc(b1-3)Gal(b1-4)GlcNAc(b1-2)Man(a1-3)]Man(b1-4)GlcNAc(b1-4)GlcNAc
How it was run: as §1

[21] = molecular target: GlcNAc(b1-3)Gal(b1-4)GlcNAc(b1-3)Gal(b1-4)GlcNAc
How it was run: as §1

[22] = molecular target: GlcNAc(b1-3)Gal(b1-4)GlcNAc(b1-3)Gal(b1-4)GlcNAc(b1-2)Man(a1-3)[GlcNAc(b1-3)Gal(b1-4)GlcNAc(b1-3)Gal(b1-4)GlcNAc(b1-2)Man(a1-6)]Man(b1-4)GlcNAc(b1-4)GlcNAc
How it was run: as §1

B1: GS7807E-bfa-538-23-538 (Bacteroides fragilis) (protein)
chain: TDSFESFNTNEAGFDNDSKKQDFNYYGIPLGIIQQGIYFNYDWGSGKNWPFQTMQNLGADLFSGYVHDFNPFNEGKNNSTYYMMDGWNGSTWDNTYGYIMPEVQKSETINEKDNIGFFGITKILKVELMHRLSDLYGPIVYTQFGSKTGSTPDTQQEAYKAFFNDLDTGIAKIREYQKANPDIESFAKFDILMPQGKRTFSEWIRFANSLRLRLAVRIAMADSKLAVAEAQKALTDEEGLLEGNDEVVAVSTSSGYTNPFGEINKAWGEVFMNANMESLLVGYEDPRMEKYFDKATGSDATSLIDYKGTYKGIRQGTGFSHKNYNGHSKSTITQQTDAVLMTPAEVWFLRAEAALRGWSSESVKDCYEKGVKASFAQWGAAGAEAYLESDRKPSDYVDAFKAANNVKAVNTLTPKWDDAAGNEDKLGRIITQKWLAMFPEGGEAWAEQRRTGYPRLFPVLVNQSEGTVDTNLGPRRLNFFVGIKTTNPEQYTQLVNALGGIDNCGTRLWWDTGRNF
[1]
  glycan array binding signal (z-score): -0.677
[2]
  glycan array binding signal (z-score): -0.653
[3]
  glycan array binding signal (z-score): -0.516
[4]
  glycan array binding signal (z-score): -0.639
[5]
  glycan array binding signal (z-score): -0.694
[6]
  glycan array binding signal (z-score): -0.599
[7]
  glycan array binding signal (z-score): -0.711
[8]
  glycan array binding signal (z-score): -0.646
[9]
  glycan array binding signal (z-score): -0.629
[10]
  glycan array binding signal (z-score): -0.591
[11]
  glycan array binding signal (z-score): -0.662
[12]
  glycan array binding signal (z-score): -0.699
[13]
  glycan array binding signal (z-score): -0.69
[14]
  glycan array binding signal (z-score): -0.675
[15]
  glycan array binding signal (z-score): -0.576
[16]
  glycan array binding signal (z-score): -0.702
[17]
  glycan array binding signal (z-score): -0.672
[18]
  glycan array binding signal (z-score): -0.233
[19]
  glycan array binding signal (z-score): -0.215
[20]
  glycan array binding signal (z-score): -0.511
[21]
  glycan array binding signal (z-score): -0.578
[22]
  glycan array binding signal (z-score): -0.536
